# According to PubChem BioAssay AID2451 (National Center for Advancing Translational Sciences (NCATS), 2010):
# Screen size: about 290,000 compounds; about 2,100 (0.72%) were called active. Inconclusive results, whose numbers are uncertain, are shown with a selection of clear calls. Calls come from the whole dose curve; as a rule, active = well fitted inhibition curve with a large enough effect; inconclusive = small, poorly fitted or top-dose-only effect, or effect the other way; inactive = flat fitted curve, though single readings scatter. Potencies of inconclusive entries are doubtful fits and often do not repeat.
# Biological target: Fructose-bisphosphate aldolase (Giardia intestinalis (strain ATCC 50803 / WB clone C6)) (UniProt A8B2U2)
# Assay: qHTS Assay for Inhibitors of Fructose-1,6-bisphosphate Aldolase from Giardia Lamblia; note: nearly all actives have a fitted effect of over 55% in size
# Conditions: purified Giardia FBPA; series mostly up to 59.6 µM
# Method in brief: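 Giardia FBPA (40 nM reagent) was preincubated 10 min at RT with compound (up to 57.5 uM final), then substrate plus GAPDH/TPI/NAD/arsenate coupling system with diaphorase/resazurin was added; resorufin fluorescence (525/598 nm) was read after 20 min.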
# Potency is the fitted concentration of half-maximal effect; tags give direction and shape of the fitted curve.
# UniProt A8B2U2, sequence (A8B2U2 whole entry, looked up): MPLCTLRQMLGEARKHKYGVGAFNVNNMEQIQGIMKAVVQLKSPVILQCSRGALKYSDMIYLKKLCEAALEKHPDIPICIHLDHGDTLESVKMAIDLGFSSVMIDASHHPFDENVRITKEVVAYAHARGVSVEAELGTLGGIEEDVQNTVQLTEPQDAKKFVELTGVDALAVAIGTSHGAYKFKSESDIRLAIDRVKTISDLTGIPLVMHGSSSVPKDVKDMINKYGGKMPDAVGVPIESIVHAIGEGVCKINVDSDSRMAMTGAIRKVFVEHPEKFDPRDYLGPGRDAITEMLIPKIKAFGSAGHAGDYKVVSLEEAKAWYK
row,SMILES,Potency
1,Cc1ccc(C2=NNC(c3ccc(Cl)cc3)=Nc3ccccc32)o1,inactive
2,CC1CCN(CC(=O)c2ccc3c(c2)OCCO3)CC1,"inconclusive: 19.9 µM [inhibitor, partial curve]"
3,COc1cccc(C(=O)Nc2sc(C(C)C)cc2C(N)=O)c1OC,"inconclusive: 19.9 µM [inhibitor, single point]"
4,Cc1cccnc1NC(=S)Nc1ccc(F)cc1F,active: 19.9 µM
5,COc1ccc(NC(=O)c2ccc(Cl)c(S(=O)(=O)N3CCc4ccccc4C3)c2)cn1,"inconclusive: 15.8 µM [inhibitor, partial curve]"
6,CCCCn1c(SCC(=O)Nc2ccc(OC)cc2)nc2ccc(N3CCOCC3)cc2c1=O,"inconclusive: 5 µM [inhibitor, full curve, poor fit]"
7,C[C@H](NC(=O)c1nc[nH]c1C(=O)N[C@@H](Cc1ccccc1)C(=O)OCc1ccccc1)C(=O)OC(C)(C)C,"inconclusive: 31.6 µM [inhibitor, single point]"
8,CC(C)(C)C(=O)Nc1nc(-c2ccc3c(c2)OCO3)cs1,inactive
9,Oc1ccc(N=Cc2ccc(OCc3ccccc3)cc2)cc1,active: 19.9 µM
10,Cn1cccc1CN1CCN(C(=O)COc2ccccc2)CC1,"inconclusive: 17.7 µM [inhibitor, partial curve]"
11,O=C(NNC(=O)C1[C@H]2CCCC[C@@H]12)c1ccc(=O)oc1 (some centres not stated),"inconclusive: 35.4 µM [inhibitor, single point]"
12,Cc1c(Cc2ccccc2)c(=O)n2c([nH]c3ccccc32)c1C#N,"inconclusive: 22.3 µM [inhibitor, partial curve]"
13,COc1ccc(S(=O)(=O)N2CCN(Cc3cccc(Cl)c3)CC2)cc1,inactive
14,S=c1[nH]nc(-c2ccncc2)n1Cc1ccco1,"inconclusive: 2.81 µM [inhibitor, full curve, poor fit]"
15,CCCC(=O)Nc1ccc(C(=O)/C=C/c2ccc(SC)cc2)cc1,inactive
16,CC1CCN(C(=O)c2[nH]cnc2C(=O)NCC(=O)OCc2ccccc2)CC1,"inconclusive: 20 µM [inhibitor, partial curve]"
17,CSc1nc(O)c(C(c2cccc([N+](=O)[O-])c2)c2c(O)nc(SC)[nH]c2=O)c(=O)[nH]1,inactive
18,CCN(C(=O)COc1cc(=O)n(C)c2ccccc12)c1cccc(Cl)c1,inactive
19,CCOC(=O)c1c[nH]n(-c2ccc(C)cc2)c1=O,"inconclusive: 15.8 µM [inhibitor, partial curve]"
20,Cc1ccc(OCC(=O)Nc2cccc(S(=O)(=O)N3CCCCCC3)c2)c([N+](=O)[O-])n1,inactive
21,CSc1ncc(/C=C2/C(=O)NC(=O)N(c3ccc(C(C)C)cc3)C2=O)cn1,inactive
22,O=C(NC(=S)N(CCO)Cc1ccccc1)c1cc(Br)ccc1Cl,active: 15.8 µM
23,c1ccc2cc(OCCN3CCCC3)ccc2c1,"inconclusive: 17.7 µM [inhibitor, partial curve]"
24,CN(C)c1ccc(N=Nc2ccc(C(=O)O)cc2)cc1,"inconclusive: 25.1 µM [inhibitor, partial curve]"

row,SMILES,Potency
1,N=C1/C(=C/c2ccc(-c3cccc(C(=O)O)c3)o2)C(=O)N=C2SC=C(c3ccccc3)N12,"inconclusive: 15.8 µM [inhibitor, single point]"
2,COc1cccc(C(=O)N2CCN(Cc3ccc(OC)cc3OC)CC2)c1,"inconclusive: 14.1 µM [inhibitor, partial curve]"
3,COc1ccccc1NC(=O)c1c(N=Cc2c(O)ccc3ccccc23)cnn1C,"inconclusive: 15.8 µM [inhibitor, partial curve]"
4,COc1cc(CSc2nc(-c3ccccc3)cc(=O)[nH]2)cc(OC)c1,"inconclusive: 28.2 µM [inhibitor, partial curve]"
5,CC1CCC(C(C)C)C(OCC(O)C[N+]2(C)CCCCC2)C1 (configuration not stated),inactive
6,COC(=O)CCC(=O)OC1(C)C(=O)C2=CN(Cc3ccc(OC)cc3)C(c3ccc(OC)cc3)=CC2=C(Br)C1=O (configuration not stated),"inconclusive: 1.41 µM [inhibitor, full curve, poor fit]"
7,COCCNCC(=O)Nc1ccc(C)c(S(=O)(=O)N2CCCCC2)c1,"inconclusive: 17.7 µM [inhibitor, partial curve]"
8,COc1ccc(Oc2nc(-c3ccccn3)ncc2OC)cc1,"inconclusive: 19.9 µM [inhibitor, single point]"
9,Cc1nc2ccccc2c(=O)n1Cc1ccco1,inactive
10,CCOC(=O)C1(Cc2cccc(F)c2)CCN(C2CCOCC2)CC1,inactive
11,Cn1nnc(NC(=S)NC(=O)c2ccccc2)n1,active: 3.15 µM
12,O=C(O)c1ccc(Cl)c2c1C1C=CCC1C(c1ccccn1)N2 (configuration not stated),"inconclusive: 14.1 µM [inhibitor, partial curve]"
13,CCc1noc2c1/C(=N\O)CC(c1ccccc1)C2 (configuration not stated),inactive
14,NC(C(=O)O)C(c1ccccc1)C(F)F (configuration not stated),"inconclusive: 14.1 µM [inhibitor, partial curve]"
15,O=C(Nc1nc(-c2ccccn2)cs1)c1ccc(Cl)s1,"inconclusive: 44.6 µM [inhibitor, single point]"
16,COC(=O)c1oc2ccccc2c1N,inactive
17,c1coc(C2=NCCc3ccccc32)c1,"inconclusive: 28.2 µM [inhibitor, single point]"
18,O=C(NC(=S)NCc1cccnc1)c1cc2ccccc2o1,inactive
19,S=c1[nH]nc(-c2ccccn2)n1/N=C/c1cccc(Cl)c1,"inconclusive: 15.8 µM [inhibitor, single point]"
20,CCN1C(=O)C2C(c3cccc(F)c3)NC(CC)(C(=O)OC)C2C1=O (configuration not stated),"inconclusive: 5.61 µM [activator, full curve]"
21,Cc1ccc(C(=O)Nc2ccccc2C(=O)NC(C(=O)O)C(C)C)cc1 (configuration not stated),"inconclusive: 17.7 µM [inhibitor, partial curve]"
22,O=C(CSc1nccc(=O)[nH]1)N1CCOCC1,"inconclusive: 20 µM [inhibitor, single point]"
23,CCOC(=O)c1c(C)n(O)c2ccc(Cl)cc2c1=O,"inconclusive: 17.8 µM [inhibitor, partial curve]"
